Measured values as given in article PMC11995724, “Antibiotic target discovery by integrated phenotypic and activity-based profiling of electrophilic fragments” (Cell chemical biology, 2025).
Hit rate of the full screen: of about 3,200 compounds, about 75 (2%) showed an effect of 50% or more. The list shows a part of the results.

tested on: T1, S. aureus MSSA476; design: species or system S. aureus MSSA476 (TSB) or V. cholerae SAD30 (LB); 384-well bacterial growth screen at 25 uM, OD600 relative to DMSO control; settings: relative growth, OD600, TSB; 25 µM; inhibitor
T1 construct: MSSA476

Point of comparison: `CC(Cl)C(=O)NC(c1ccccc1)c1ccccc1` (stereo not shown) [5-A21, 2-chloro-N-(diphenylmethyl)propanamide], “% of control remaining” value 92.5319%. Against it:
- C=CC(=O)N1CCc2c(ncn2-c2ccccc2)C1 [3-N09, 1-{1-phenyl-1H,4H,5H,6H,7H-imidazo[4,5-c]pyridin-5-yl}prop-2-en-1-one] — higher, 117.719%
- C=CC(=O)N1CCC(C(=O)N2CCCC(c3cnn(C)c3)C2)CC1 (stereo not shown) [2-N16, 1-{4-[3-(1-methyl-1H-pyrazol-4-yl)piperidine-1-carbonyl]piperidin-1-yl}prop-2-en-1-one] — higher, 99.913%
- C=CC(=O)N(CC)CC(=O)N1CCN(c2ccc(C#N)cc2F)CC1 [3-D03, N-{2-[4-(4-cyano-2-fluorophenyl)piperazin-1-yl]-2-oxoethyl}-N-ethylprop-2-enamide] — higher, 92.9909%
- CN(C(=O)CCl)C(c1ccc(Cl)cc1)C(F)(F)F (stereo not shown) [7-J16, 2-chloro-N-[1-(4-chlorophenyl)-2,2,2-trifluoroethyl]-N-methylacetamide] — higher, 101.413%
- CNC(=O)CC(NC(=O)CCl)c1ccc(F)cc1F (stereo not shown) [4-I16, 3-(2-chloroacetamido)-3-(2,4-difluorophenyl)-N-methylpropanamide] — higher, 111.672%
- CC1CN(C(=O)C(C#N)=Cc2c(Cl)cccc2Cl)CC(C)O1 (stereo not shown) [8-O12, 3-(2,6-dichlorophenyl)-2-(2,6-dimethylmorpholine-4-carbonyl)prop-2-enenitrile] — higher, 124.481%
- C=CCN(Cc1cccs1)C(=O)CCl [5-B06, 2-chloro-N-(prop-2-en-1-yl)-N-[(thiophen-2-yl)methyl]acetamide] — lower, 77.9599%
- CN(c1ccc(C(=O)CCl)cc1)S(C)(=O)=O [10-F19, N-[4-(2-chloroacetyl)phenyl]-N-methylmethanesulfonamide] — lower, -0.3125%
- CC(C)C(C)N(Cc1ccns1)C(=O)CCl (stereo not shown) [5-M12, 2-chloro-N-(3-methylbutan-2-yl)-N-[(1,2-thiazol-5-yl)methyl]acetamide] — lower, 77.9599%
- C=CC(=O)Nc1cc(NC(=O)C2CC3CCC2CC3)ccc1F (stereo not shown) [1-C17, N-[4-fluoro-3-(prop-2-enamido)phenyl]bicyclo[2.2.2]octane-2-carboxamide] — higher, 94.2418%
- COc1ccc(NC(=O)C(C)Cl)cc1Cl (stereo not shown) [4-I14, 2-chloro-N-(3-chloro-4-methoxyphenyl)propanamide] — higher, 115.102%
- CS(=O)(=O)N1CCc2cc(C(=O)CCl)ccc21 [10-B19, 2-chloro-1-(1-methanesulfonyl-2,3-dihydro-1H-indol-5-yl)ethan-1-one] — lower, 0.3125%
- CC(Cl)C(=O)Nc1ccc(Cl)cc1Cl (stereo not shown) [4-L17, 2-chloro-N-(2,4-dichlorophenyl)propanamide] — higher, 92.9967%
- C=CC(=O)NC1CC2CCC(C1)N2S(C)(=O)=O (stereo not shown) [2-A18, N-{8-methanesulfonyl-8-azabicyclo[3.2.1]octan-3-yl}prop-2-enamide] — higher, 153.177%
- C=CC(=O)N1CCC(C(=O)NCC2([S+](C)[O-])CCC2)CC1 (stereo not shown) [2-D18, N-[(1-methanesulfinylcyclobutyl)methyl]-1-(prop-2-enoyl)piperidine-4-carboxamide] — higher, 114.186%
- O=C(CCl)Nc1cc(-n2nnnc2C2CC2)ccc1F [6-E09, 2-chloro-N-[5-(5-cyclopropyl-1H-1,2,3,4-tetrazol-1-yl)-2-fluorophenyl]acetamide] — lower, 74.0976%
- N#CC(=Cc1ccc(N2CCCCCC2)cc1)C(=O)NCC1CCCO1 (stereo not shown) [9-H15, 3-[4-(azepan-1-yl)phenyl]-2-cyano-N-[(oxolan-2-yl)methyl]prop-2-enamide] — higher, 120.749%
- C=CC(=O)N1CCCCC1c1nc2ccccc2o1 (stereo not shown) [3-O20, 1-[2-(1,3-benzoxazol-2-yl)piperidin-1-yl]prop-2-en-1-one] — higher, 102.046%
- CC(Cl)C(=O)NCC1=CCCOC1 (stereo not shown) [7-I05, 2-chloro-N-[(5,6-dihydro-2H-pyran-3-yl)methyl]propanamide] — higher, 101.099%
- N#CC(=Cc1cccc(O)c1)C(=O)Nc1ccccc1C(F)(F)F [9-A20, 2-cyano-3-(3-hydroxyphenyl)-N-[2-(trifluoromethyl)phenyl]prop-2-enamide] — higher, 94.6816%
- Cc1cccc(NC(=O)C(C)Cl)c1 (stereo not shown) [5-P10, 2-chloro-N-(3-methylphenyl)propanamide] — higher, 114.39%
- CC(Cl)C(=O)N1CCC(Oc2ccc(C3CC3)cn2)C1 (stereo not shown) [7-A18, 2-chloro-1-{3-[(5-cyclopropylpyridin-2-yl)oxy]pyrrolidin-1-yl}propan-1-one] — higher, 102.041%
- CC(Cl)C(=O)N1CC(S(=O)(=O)Nc2ccccc2)C1 (stereo not shown) [7-G05, 1-(2-chloropropanoyl)-N-phenylazetidine-3-sulfonamide] — lower, 89.4819%
- Cc1cc(C)n2c(-c3c(Cl)cccc3NC(=O)CCl)nnc2n1 [5-M16, 2-chloro-N-(3-chloro-2-{5,7-dimethyl-[1,2,4]triazolo[4,3-a]pyrimidin-3-yl}phenyl)acetamide] — higher, 93.9891%
- C=CC(=O)NCc1nc(-c2ccc(F)cc2)n[nH]1 [3-D04, N-{[3-(4-fluorophenyl)-1H-1,2,4-triazol-5-yl]methyl}prop-2-enamide] — higher, 97.8668%
- Cc1ccc(Oc2ccc(Cl)cc2NC(=O)CCl)cc1 [4-A21, 2-chloro-N-[5-chloro-2-(4-methylphenoxy)phenyl]acetamide] — higher, 133.397%
- C=CC(=O)N1CCC(C(=O)NCc2ccc(OC)cn2)CC1 [3-O19, N-[(5-methoxypyridin-2-yl)methyl]-1-(prop-2-enoyl)piperidine-4-carboxamide] — higher, 120.853%
